Measurements as given in US5654451A, “Amino acids and peptides having modified C-terminals and modified N-terminals” (Magainin Pharmaceuticals Inc., priority 1995, dated 1997).
≈ marks a conversion by molar mass, not a printed value. Not every detail of the peptide structures is certain; ends, links or a residue may be inferred. For some of these results: At least one structure is not confirmed: it was looked up by name or label, or the drawing left a doubt.

Legend:
Assay in all cases: Antimicrobial assay (MIC, microtiter broth dilution)
Format in all cases: cell-based
C. albicans = conditions: Table VI
Procedure: (§1) The procedure for the antimicrobial assay is based upon the guidelines of the National Committee for Clinical Laboratory Standards, Document M7-T2, Volume 8, No. 8, 1988.
(§2) 1-5×10^5 CFUs/ml of either S. aureus ATCC 25923, E. coli ATCC 25922, P. aeruginosa ATCC 27853, or C. albicans were added to the wells in full strength Mueller Hinton broth (BBL 11443) from a mid-log culture. The inoculum is standardized spectrophotometrically at 600 nm and is verified by colony counts. The plates are incubated for 16-20 hours at 37° C., and the minimal inhibitory concentrations (MIC) for the compounds are determined. Minimal inhibitory concentration is defined as the lowest concentration of amino acid or peptide which produces a clear well in the microtiter plate.

S. aureus = conditions: for MIC Staph: Table VI
Procedure: as §1, §2

P. aeruginosa = conditions: Table VI
Procedure: as §1, §2

E. coli = conditions: Table VI
Procedure: as §1, §2

Structure (SMILES) | MIC Candida (C. albicans) [µg/mL] | MIC Staph (S. aureus) [µg/mL] | MIC Psuedo (P. aeruginosa) [µg/mL] | MIC E. coli (E. coli) [µg/mL] | MIC S. aureus 29213 (S. aureus; strain 29213 (Tables II-V))
N=C(N)NCCC[C@H](NC(=O)[C@@H](N)CCC(=O)O)C(=O)N[C@@H](Cc1ccccc1)C(=O)NCCCCCCCCCCCCNC(=O)[C@H](Cc1ccccc1)NC(=O)[C@H](CCCNC(=N)N)NC(=O)[C@@H](N)CCC(=O)O [Compound 45, 1,12-[Di-(GluArgPhe)] diaminododecane] | 64 (≈ 60.1 µM) | – | – | – | –
N=C(N)NCCC[C@H](N)C(=O)NC1(C(=O)NCCCCCCCCCCCCNC(=O)C2(NC(=O)[C@@H](N)CCCNC(=N)N)CCCCC2)CCCCC1 [Compound 61, 1,12-[Di-(ArgAche)] diaminododecane] | 64 (≈ 83.9 µM) | 32 (≈ 41.9 µM) | – | – | –
CCCCCCCCN(CCCCCCCC)C(=O)[C@H](Cc1c[nH]c2ccccc12)NC(=O)[C@@H](N)CCCNC(=N)N [Compound 65, ArgTrp-dioctylamide] | 16 (≈ 27.4 µM) | 2 (≈ 3.43 µM) | 256 (≈ 438 µM) | 4 (≈ 6.85 µM) | –
CCCCCCCCCCCCOC(=O)[C@H](Cc1ccccc1)NC(=O)[C@H](CCCNC(=N)N)NC(=O)CCN [Compound 90, β-AlaArgPhe-dodecylester] | 32 to 64 | 4 (≈ 7.13 µM) | 8 to 16 | 4 to 8 | –
N=C(N)NCCC[C@H](N)C(=O)N[C@@H](Cc1ccccc1)C(=O)N[C@H]1CSSC[C@H](NC(=O)[C@H](Cc2ccccc2)NC(=O)[C@@H](N)CCCNC(=N)N)C(=O)NCCCCCCCCCCCCNC1=O [Compound 50] | – | 64 (≈ 63.3 µM) | – | – | –
N=C(N)NCCC[C@H](NC(=O)CCNC(=N)N)C(=O)N[C@@H](Cc1ccccc1)C(=O)NCCCCCCCCCCCCNC(=O)[C@H](Cc1ccccc1)NC(=O)[C@H](CCCNC(=N)N)NC(=O)CCNC(=N)N [Compound 39, 1,12-[Di-(β-Guanidinopropionyl-ArgPhe)] diaminododecane] | 64 (≈ 61.9 µM) | 2 (≈ 1.94 µM) | 64 (≈ 61.9 µM) | 16 (≈ 15.5 µM) | –
N=C(N)NC(Cc1ccccc1)C(=O)Nc1ccc(C=Cc2ccc(NC(=O)C(N)Cc3ccccc3)cc2)cc1 (stereo not drawn) [Compound 24, 4-(N-α-amidino-phenylalanyl)-4'-phenylalanyl-diaminostilbene] | – | – | – | – | 0.5,1
N=C(N)NCCC[C@H](NC(=O)[C@@H](N)CCCNC(=N)N)C(=O)N[C@@H](Cc1ccccc1)C(=O)NCCCCCCCCCCCCNC(=O)[C@H](Cc1ccccc1)NC(=O)[C@H](CCCNC(=N)N)NC(=O)[C@@H](N)CCCNC(=N)N [Compound 44, 1,12-[Di-(ArgArgPhe)] diaminododecane] | 64 (≈ 57.2 µM) | 4 (≈ 3.57 µM) | 64 (≈ 57.2 µM) | 16 (≈ 14.3 µM) | –
CC(C)C[C@H](NC(=O)[C@@H](N)CCCNC(=N)N)C(=O)NCCCCCCCCCCCCNC(=O)[C@H](CC(C)C)NC(=O)[C@@H](N)CCCNC(=N)N [Compound 62, 1,12-[Di-(ArgLeu)] diaminododecane] | 32 (≈ 43.3 µM) | 32 (≈ 43.3 µM) | – | – | –
CC(C)(C)OC(=O)NCCCC(=O)N[C@@H](CCCNC(=N)N)C(=O)N[C@@H](Cc1ccccc1)C(=O)NCCCCCCCCCCCCNC(=O)[C@H](Cc1ccccc1)NC(=O)[C@H](CCCNC(=N)N)NC(=O)CCCNC(=O)OC(C)(C)C [Compound 40, 1,12-[Di-(Boc-γ-aminobutyryl-ArgPhe)] diaminododecane] | – | 2 (≈ 1.7 µM) | – | – | –
CCCCCCCCCCCCOC(=O)[C@H](Cc1ccccc1)NC(=O)[C@@H](N)CCCNC(=N)N [Compound 89, ArgPhe-dodecylester] | 8 to 16 | 2 to 8 | 16 (≈ 32.7 µM) | 4 to 16 | –
NCCCC[C@H](N)C(=O)N[C@@H](Cc1ccccc1)C(=O)NCCCCCCCCCCCCNC(=O)[C@H](Cc1ccccc1)NC(=O)[C@@H](N)CCCCN [Compound 55, 1,12-[Di-(LysPhe)] diaminododecane] | 64 (≈ 85.2 µM) | 128 (≈ 170 µM) | – | – | –
CCCC[C@H](NC(=O)[C@@H](N)CCCNC(=N)N)C(=O)NCCCCCCCCCCCCNC(=O)[C@H](CCCC)NC(=O)[C@@H](N)CCCNC(=N)N [Compound 63, 1,12-[Di-(ArgNle)] diaminododecane] | 32 (≈ 43.3 µM) | 16 (≈ 21.6 µM) | 256 (≈ 346 µM) | 64 (≈ 86.6 µM) | –
